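In this assay, cells in 96-well plates receive the compound at five concentrations for 48 hours. Endpoints are linearly interpolated between the surrounding concentrations. GI50: concentration for 50% inhibition of growth. Definition used: TGI = concentration required for complete inhibition of growth.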
Test system: NCI-H322M lung
Experiment: NCI anticancer screen, dose series, 48 h

| SMILES | GI50 [µM] | TGI [µM] |
| --- | --- | --- |
| Cc1ccc(S(=O)(=O)NCCCNc2nc(Nc3ccc(N4CCN(C)CC4)cc3)nc3ccsc23)cc1 | 10.9 | 24.3 |
| COC(=O)C[Se]C(=O)Cc1c(C)n(C(=O)c2ccc(Cl)cc2)c2ccc(OC)cc12 | 2.51 | 12.3 |

Reference: PubChem BioAssay (NCI)
